# Source: PubChem BioAssay (NCI)
# “And” between values parts separate entries of the source, which are not always exact repeats. Identical values can stand only once.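 Where inhibition never reached the appropriate level, the endpoint shown equals the highest concentration tested. Otherwise, values were interpolated linearly from a five-concentration, 48-hour dose response in 96-well plates. GI50: concentration for 50% inhibition of growth. The concentration for full growth arrest is given as TGI.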
# System: NCI-H322M lung
# Experiment: DTP human tumour cell line panel, 48 h
Compound,TGI,GI50
O=C(/C=C/c1cccs1)c1cccc(C(=O)/C=C/c2cccs2)n1,> 100 µM,
CC1=C2C(=O)C(C)(C)C=C2C(=O)[C@](C)(O)C12CC2,> 1 µM,
N#C[C@@]12CCCC(=O)[C@@H]1[C@H]1CCC[C@H]12,32.8 µM,
O=C(COc1ccc(Cl)cc1)N1N=C(c2ccc([N+](=O)[O-])o2)CC1(O)c1ccccc1 (stereo unspecified),22.4 µM,
O=C(Nc1ccc(Cl)cc1)c1cc2cc(F)ccc2cc1O,9.9 µM,2.05 µM
CSc1nc(O)c(/C=C2\C=Nc3ccccc32)[nH]1,> 100 µM,
CSc1nncc2[nH]cnc12,> 100 µM,
O=S(=O)(O)c1ccc2c(N=Nc3ccccc3Cl)c(O)ccc2c1,> 100 µM,
CC(=O)O[C@H]1CCC2[C@@H]3CCC4Nc5c(cnn5-c5ccccc5)C[C@]4(C)C3CC[C@@]21C (stereo partly specified),61.1 µM,
Nc1nc(N)c2nc(-c3ccco3)cnc2n1,> 100 µM,
COc1ccc(N=C2C(=Nc3ccc(OC)cc3)N(S(=O)(=O)c3ccccc3)C(=S)N2c2ccc(OC)cc2)cc1,> 100 µM,
O=c1[nH]c2ccc(CC(=S)N3CCN(c4ccccc4)CC3)cc2o1,> 100 µM,
O=C(CN1CCOCC1)CC(O)(C(F)(F)F)C(F)(F)F,> 100 µM,
Cc1ccc(/C=N/NC2=NCCN2)s1,> 100 µM,
NC12CC3CC4C1CC1CC2C(C3)C4(N)C1,> 100 µM,
CCOP(=O)(OCC)/C(C#N)=C/c1cccn1N(C)C,> 100 µM,
N=c1oc2ccc(Cl)cc2cc1C(=O)NCc1ccccc1,> 100 µM,
O=C1CCC2=C3C4CCCCC4C(=O)C4CCCC(OC2C1)C34 (stereo unspecified),> 32.6 µM,3.59 µM
O=C(N/N=C\c1ccc([N+](=O)[O-])cc1)Nc1cccc2ccccc12,> 100 µM,
O=C1CC(c2ccc[nH]2)=NN1c1ccccc1,> 100 µM,
c1ccc2c(c1)nnn2CNc1ccc(N2CCOCC2)cc1,> 100 µM,
CC(=O)NNC(=S)/N=C/c1c(O)cc(C)oc1=O,> 100 µM,
Cc1ccc(C(=O)CCC2C(=O)CC(C)(C)CC2=O)cc1,> 100 µM,
COc1cc2c(Nc3ccc(Br)cc3F)ncnc2cc1OCC1CCN(C)CC1,7.91 µM and > 10 µM,0.388 µM and 0.389 µM

Compound,TGI,GI50
CC(=O)N1N=C(N)CC1=O,> 100 µM,
C/C=C1\C(=O)O[C@@H]2C1C[C@@H]1O[C@H]2[C@H](C)CCC/C(C)=C/CC[C@@]1(C)O (stereo partly specified),30.7 µM,16.1 µM
CCOC(=O)/C=C(\N=P(c1ccccc1)(c1ccccc1)c1ccccc1)C(F)(F)C(F)(F)C(F)(F)C(F)(F)C(F)(F)F,> 100 µM,
C[C@@H](Oc1cc(NS(=O)(=O)N2CCC2)nc(SCc2cccc(F)c2F)n1)[C@@H](O)CO,> 100 µM,> 100 µM
CCCCCCCC(=O)OCC1OC(n2cc(F)c(=O)[nH]c2=O)C(NC(=O)OCc2ccccc2)C(OC(=O)CCCCCCC)C1O (stereo unspecified),> 100 µM,
O=C1OC[C@@H]2Cc3c([nH]c4ccccc34)[C@@H](c3cc(O)c(O)c(O)c3)N12,> 100 µM,
O=C1/C(=C/c2cccs2)NC(=S)N1CN1CCOCC1,> 100 µM,
CN(C1=NS(=O)(=O)N=C(N(C)c2ccccc2)O1)c1ccccc1,47.4 µM,
O[C@H]1[C@H](O)[C@H](O)CN2CCC[C@@H](O)[C@H]12,> 100 µM,
O=C1/C(=C/c2ccccc2Br)COc2ccc(O)c(O)c21,5.42 µM,2.01 µM
COc1ccccc1N=N/C(=N/NC(=O)c1ccc(C)cc1)c1ccc(N(CCC#N)CCC#N)cc1OC,> 100 µM,
C/C(=N\O)c1cccc(Nc2nc3ccccc3c3occc23)c1,26.8 µM,
O=S(=O)(NCCCNc1cc(-c2cn(-c3ccccc3)nc2-c2cccc(O)c2)ccn1)c1cccc2ccccc12,> 100 µM,4.62 µM
COc1cc2c(cc1OC)C(Cc1ccccc1CCCl)=NCC2,> 100 µM,
NCC1OC(n2cnc3c(=O)[nH]c(N)nc32)C(O)C1O (stereo unspecified),> 100 µM,
COc1cccc2c1C(=O)c1c(O)c3c(c(O)c1C2=O)C[C@@](O)(/C(C)=N/NC(=O)c1ccccc1)C[C@@H]3OC1CC(N)C(O)C(C)O1 (stereo partly specified),7.65 µM,
CC1OC(O[C@H]2/C=C/C=C/C=C/C=C/C=C/C=C/C=C/[C@H](C)[C@@H](O)[C@@H](C)[C@H](C)OC(=O)C[C@H](O)C[C@H](O)CC[C@@H](O)[C@H](O)C[C@H](O)C[C@]3(O)C[C@H](O)[C@@H](C(=O)O)[C@H](C2)O3)C(O)C(N)C1O (stereo partly specified),50.3 µM,20.2 µM
CC(=O)O[C@H]1C(=O)[C@@]2(C)[C@H]([C@H](OC(=O)c3ccccc3)[C@]3(O)C[C@H](OC(=O)[C@H](O)[C@@H](NC(=O)CC(C)C)c4ccccc4)C(C)=C1C3(C)C)[C@]1(OC(C)=O)CO[C@@H]1C[C@@H]2O,> 10 µM,
C[C@@H](NC1CCC[C@@H]1O)c1ccccc1 (stereo partly specified),> 100 µM,
O=C(c1cc2c(C(F)(F)F)onc2c2ccccc12)C(F)(F)F,> 100 µM,
NC(Cc1c[nH]c2ccccc12)C(=O)O (stereo unspecified),> 300 µM,
S=P(c1ccccc1)(c1ccccc1)C1(C2(P(=S)(c3ccccc3)c3ccccc3)CC2)CC1,> 100 µM,
Fc1cc(-c2ncc(Cl)cc2Cl)c2cccccc1-2,> 100 µM,
S=C(c1c[nH]c2ccccc12)N1CCN(c2ccccc2)CC1,> 100 µM,

Compound,TGI,GI50
O=c1c(O)c(-c2cc(O)c(O)cc2O)oc2cc(O)c(C3OC(CO)C(O)C(O)C3O)c(O)c12 (stereo unspecified),> 100 µM,
COC(=O)[C@H](Cc1ccccc1)NP(=O)(O)OCC1OC(n2cc(C)c(=O)[nH]c2=O)CC1N=[N+]=[N-] (stereo partly specified),> 100 µM,
COc1ccc(C2SCC(=O)N2NC(=O)C(C)Oc2ccccc2Cl)cc1 (stereo unspecified),> 100 µM,
COc1ccc(Nc2nc(N)c(C(=O)c3ccccc3)s2)cc1,> 100 µM,
c1ccc(/N=C2\c3ccccc3CN2c2ccccn2)nc1,> 100 µM,
CN(C)CCCN=c1cc2c(=O)n(CCCN(C)C)c(=O)c3c(NCCCN(C)C)cc4c(O)n(CCCN(C)C)c(=O)c1c4c3-2,5.44 µM,1.09 µM
CCN(CC)CCSc1nc2c(c(=N)n1-c1ccccc1)c(=S)n(-c1ccccc1)c(=S)n2-c1ccccc1,23 µM,
Cc1cccc2c1O/C(=C\c1ncc([N+](=O)[O-])n1C)C2=O,5.89 µM,1.69 µM
Clc1ccc2c(NCCNc3ccnc4cc(Cl)ccc34)ccnc2c1,31.2 µM,
O=c1[nH]c(Nc2cccc(Br)c2)nc2nc[nH]c12,> 100 µM,
COc1cc([C@@H]2c3cc4c(cc3[C@@H](NCc3ccc(C#N)cc3)C3COC(=O)[C@@H]32)OCO4)cc(OC)c1O (stereo partly specified),41.4 µM,
CC1=C(C(=O)Nc2ccccc2)C(c2ccc(C)o2)C(C#N)=C(SCc2ccccc2)N1 (stereo unspecified),> 100 µM,
O=C1NC(=O)C(=O)C(c2nc3ccccc3s2)C1=O,> 100 µM,
CC1(C)CCC2(C(=O)O)CC[C@]3(C)C(=CCC4C5(C)CC[C@H](OC6OC(C(=O)O)C(O)C(OC7OC(CO)C(O)C(O)C7O)C6OC6OC(CO)C(O)C(O)C6O)C(C)(C)C5CCC43C)C2C1 (stereo partly specified),91.3 µM,26.1 µM
COc1ccc(-n2c3c(c4c(CN(C)C)c(O)ccc42)C(=O)c2ccccc2C3=O)cc1,34.4 µM,
O=CC1OC(=O)c2cc(O)c(O)c(O)c2-c2c(cc(O)c(O)c2O)C(=O)OC1C(O)C(O)CO (stereo unspecified),> 100 µM,
O=C1CCCCC[C@]12SC[C@H]1CON=C12,> 100 µM,
COc1ccc(-c2nc(N)c3ncn(C4OC(CO)C(O)C4O)c3n2)cc1 (stereo unspecified),> 100 µM,
CCOC(=O)C(C)(C)/C=C\C(Cl)=C(Cl)Cl,> 100 µM,
O=C(O)CCSC(=O)Nc1cccc([N+](=O)[O-])c1,> 100 µM,
NNC(=O)CCC(=O)Nc1ccc(Cl)cc1Cl,> 100 µM,
COc1cc(C(=O)Nc2c3ccccc3nc3ccccc23)cc(OC)c1OC,> 100 µM,
